According to PubChem BioAssay AID504332 (National Center for Advancing Translational Sciences (NCATS), 2011):
The campaign covered roughly 350,000 compounds. About 31,000 (8.9%) were called active. This list was built around the results that the source calls inconclusive (neither active nor inactive); the mix of calls is not that of the screen. Calls come from the whole dose curve; as a rule, active = well fitted inhibition curve with a large enough effect; inconclusive = small, poorly fitted or top-dose-only effect; inactive = no such curve, though single readings can be large or run the other way. A potency beside an inconclusive call is a rough fit, not a confirmed value.

Each compound was assayed against Histone-lysine N-methyltransferase EHMT2 (Homo sapiens) (UniProt Q96KQ7) (assay: qHTS Assay for Inhibitors of Histone Lysine Methyltransferase G9a). Conditions: G9a H3K9 monomethylation, AlphaScreen, 2 h; activity, negative = inhibition: at 59 µM (top of the series) unless noted.
UniProt Q96KQ7, sequence (Q96KQ7 whole entry, looked up): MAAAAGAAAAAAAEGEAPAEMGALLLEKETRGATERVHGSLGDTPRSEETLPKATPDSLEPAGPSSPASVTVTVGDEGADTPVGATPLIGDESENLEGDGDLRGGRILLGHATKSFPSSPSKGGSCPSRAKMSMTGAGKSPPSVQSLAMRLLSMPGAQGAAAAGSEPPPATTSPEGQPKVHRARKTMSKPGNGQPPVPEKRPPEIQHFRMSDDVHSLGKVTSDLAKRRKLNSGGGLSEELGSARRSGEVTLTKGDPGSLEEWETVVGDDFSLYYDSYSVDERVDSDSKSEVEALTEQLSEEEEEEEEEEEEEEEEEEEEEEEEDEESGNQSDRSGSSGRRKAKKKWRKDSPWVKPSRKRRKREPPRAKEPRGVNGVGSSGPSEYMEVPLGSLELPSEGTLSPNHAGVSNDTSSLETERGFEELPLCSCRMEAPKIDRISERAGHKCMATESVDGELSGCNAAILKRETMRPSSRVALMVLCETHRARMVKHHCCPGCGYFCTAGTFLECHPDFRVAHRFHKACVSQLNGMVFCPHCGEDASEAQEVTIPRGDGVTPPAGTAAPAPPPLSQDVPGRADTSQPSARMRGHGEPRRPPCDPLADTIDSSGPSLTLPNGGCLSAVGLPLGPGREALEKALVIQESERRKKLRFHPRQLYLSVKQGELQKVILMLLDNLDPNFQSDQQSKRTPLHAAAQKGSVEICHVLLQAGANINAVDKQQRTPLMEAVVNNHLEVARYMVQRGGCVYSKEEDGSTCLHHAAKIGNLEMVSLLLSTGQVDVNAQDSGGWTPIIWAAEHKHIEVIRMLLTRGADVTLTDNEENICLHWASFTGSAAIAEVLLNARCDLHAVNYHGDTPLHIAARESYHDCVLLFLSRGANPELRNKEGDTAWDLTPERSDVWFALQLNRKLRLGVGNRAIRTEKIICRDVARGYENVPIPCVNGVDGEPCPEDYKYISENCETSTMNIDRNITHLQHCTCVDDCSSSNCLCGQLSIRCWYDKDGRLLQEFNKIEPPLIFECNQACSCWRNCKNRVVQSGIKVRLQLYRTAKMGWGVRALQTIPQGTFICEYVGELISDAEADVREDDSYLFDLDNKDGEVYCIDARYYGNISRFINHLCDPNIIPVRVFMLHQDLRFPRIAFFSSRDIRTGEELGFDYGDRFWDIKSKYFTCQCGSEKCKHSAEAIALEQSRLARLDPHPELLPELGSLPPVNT
Method in brief: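 Enzyme 20 nM + cpd, 15 min RT; add b-H3K9 pep 500 nM / SAM 20 uM; 2 h RT; anti-H3K9me1 Ab 0.5 ug/mL + SA donor / anti-rabbit acceptor beads 20 ug/mL each, 10 min; AlphaScreen read.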
% is set by controls: 0 for no effect and ±100 for the full control effect; potency is the fitted concentration of half-maximal effect; tags give direction and shape of the fitted curve.
Note: nearly all actives have a fitted effect of over 75% in size.

| SMILES | Potency | activity, negative = inhibition |
| --- | --- | --- |
| Clc1ccccc1CN1CCN(/N=C/C=C\c2ccco2)CC1 | active: 35.5 µM | – |
| CCOc1ccc(CN2CCNC(=O)C2CC(=O)NCc2ccccn2)cc1 (centres undefined) | inconclusive: 89.1 µM [inhibitor, partial curve, poor fit] | – |
| NC(=O)c1ccc(NC(=O)COc2coc(CN3CCc4ccccc4C3)cc2=O)cc1 | active: 50.1 µM | – |
| Cc1nnsc1C(=O)Nc1ccc(S(=O)(=O)N2CCCCC2)cc1 | inactive | – |
| CC(Oc1ccc(Cl)cc1Cl)C(=O)Nc1cccc(O)c1 (centres undefined) | – | inconclusive: -52.9% [inhibitor] |
| Cn1c(C(=O)NCCCN2CCCCCC2)cc2c(=O)n(C)c3ccccc3c21 | inconclusive: 20 µM [inhibitor, single point] | – |
| CCN1CCN(C(c2ccccc2)c2c(O)cc(C)n(Cc3ccco3)c2=O)CC1 (centres undefined) | inconclusive: 39.8 µM [inhibitor, single point] | – |
| N#CCSc1nnc(-c2cccnc2)n1-c1ccccc1 | inconclusive: 89.1 µM [inhibitor, partial curve, poor fit] | – |
| COc1ccc(-n2nc3c(N4CCC(C(=O)N5CCCCCC5)CC4)nnc(C)c3c2C)cc1 | inactive | – |
| O=C1C(SC(F)(F)C(F)F)=C(C(F)(F)F)OC2C3C=CC(C3)C12 (centres undefined) | inconclusive: 79.4 µM [inhibitor, single point] | – |
| COc1ccc(S(=O)(=O)NCC(c2ccco2)N2CCc3ccccc32)cc1 (centres undefined) | inconclusive: 39.8 µM [inhibitor, single point] | – |
| O=C(Nc1cccnc1)c1ccc(Cl)cc1[N+](=O)[O-] | inconclusive: 44.7 µM [inhibitor, partial curve, poor fit] | – |
| COc1ccc(NC(=O)CSc2nnc(-c3ccoc3C)n2CCc2ccccc2)cc1 | – | inactive: 12.1% [at 2.33 µM] |
| CN1C(=O)SC(Nc2ccc(F)cc2)C1=O (centres undefined) | – | inconclusive: -57.8% [inhibitor] |
| Cc1ccc(Nc2cc(C)c3ccc(O)cc3n2)cc1C | inactive | – |
| Cc1cc(C)c(NC(=O)CCCN2CCCC2)c(C)c1 | inconclusive: 89.1 µM [inhibitor, single point] | – |
| CCOC(=O)CSc1nc(C)c(C(C)=O)cc1C#N | inconclusive: 22.4 µM [inhibitor, partial curve, poor fit] | – |
| COc1ccc(C(=O)NCC(c2ccc3c(c2)OCO3)N2CCN(c3ccc(OC)cc3)CC2)cc1 (centres undefined) | active: 6.31 µM | – |
| COc1ccc(-c2nnc3c4ccccc4c(-c4ccccc4)nn23)cc1 | inactive | – |
| CCOc1ccc(CCNC(=O)c2cccc(-n3c(C)nc4cccnc43)c2)cc1 | inactive | – |
| Cc1ccc(-c2nn(-c3ccccc3)cc2C2CC(c3cccs3)=NN2C(=O)CCCC(=O)O)cc1 (centres undefined) | inconclusive: 79.4 µM [inhibitor, single point] | – |
| COc1ccc(CCNc2ncnc3c2c(C)c(C)n3CCO)cc1OC | inactive | – |

| SMILES | Potency | activity, negative = inhibition |
| --- | --- | --- |
| CCOc1ccc(-c2nc(CSc3nncs3)cs2)cc1OC | inconclusive: 100 µM [inhibitor, single point] | – |
| Cc1ccc(N2C(=O)CC(Cc3ccc(Cl)cc3)C2=O)cc1 (centres undefined) | inactive | – |
| O=C(COc1ccccc1)Nc1ccc(N2CCCCC2)cc1 | inconclusive: 44.7 µM [inhibitor, partial curve, poor fit] | – |
| O=C(Nc1ccc2c(c1)OCO2)C1CC1(Cl)Cl (centres undefined) | – | inactive: 2.4% [at 12.7 µM] |
| CCOc1ccc2nc(SCC(=O)NCc3ccc(S(N)(=O)=O)cc3)sc2c1 | inconclusive: 70.8 µM [inhibitor, single point] | – |
| COc1cc(Cl)c(C)cc1NC(=O)CCN1C(=O)NC(C)(C)C1=O | inconclusive: 89.1 µM [inhibitor, partial curve, poor fit] | – |
| Cc1cc(C)c2cc(C(=O)N3CCc4ccccc4C3)[nH]c2c1 | inconclusive: 70.8 µM [inhibitor, single point] | – |
| Cc1c(NC(=O)Cc2cccs2)cccc1[N+](=O)[O-] | inconclusive: 89.1 µM [inhibitor, partial curve, poor fit] | – |
| COc1cccc(CN2CC(C(=O)NCCC3=CCCCC3)CCC2=O)c1 (centres undefined) | inactive | – |
| Nc1ccc2nc(CN3CCOCC3)[nH]c2c1 | inconclusive: 3.55 µM [inhibitor, partial curve, poor fit] | – |
| O=C(CCn1nc(-c2ccc(Cl)cc2)c2ccccc2c1=O)Nc1ccc(OC(F)(F)F)cc1 | inactive | – |
| CN(C)c1ccnc(-n2cccc2/C=N/O)c1C#N | inconclusive: 44.7 µM [inhibitor, partial curve, poor fit] | – |
| COc1ccccc1NC(=S)NCc1ccc(S(N)(=O)=O)cc1 | inconclusive: 79.4 µM [inhibitor, single point] | – |
| O=C(COC(=O)CSc1ccc2ccccc2c1)NC1CCCC1 | inconclusive: 22.4 µM [inhibitor, single point] | – |
| COc1ccc(-n2c3c(cc(C(=O)NNc4ccccc4C)c2=O)C(=O)CC(C)(C)C3)cc1 | active: 50.1 µM | – |
| O=C(Nc1cc(F)ccc1F)c1cc2nc(-c3ccco3)cc(C(F)(F)Cl)n2n1 | inconclusive: 3.16 µM [inhibitor, partial curve, poor fit] | – |
| O=C1CC(c2ccc(F)cc2)Cc2nc(N3CCN(c4ccccc4)CC3)ncc21 (centres undefined) | inconclusive: 0.794 µM [inhibitor, full curve, poor fit] | – |
| COc1cc(OC)cc(C(C(=O)NCc2ccccc2)N(Cc2ccco2)C(=O)c2ccno2)c1 (centres undefined) | inconclusive: 89.1 µM [inhibitor, single point] | – |
| CN1CCN(c2nc3c(c(=O)n(C)c(=O)n3C)n2CC(N)=O)CC1 | inconclusive: 89.1 µM [inhibitor, single point] | – |
| Cn1c2ccccc2c(=O)c2c(=O)n(-c3ccccc3)c(C3CCCCC3)nc21 | inconclusive: 89.1 µM [inhibitor, single point] | – |
| COC(=O)c1cc(S(=O)(=O)NCC2CCN(Cc3ccccc3F)CC2)c[nH]1 | inactive | – |
| CCc1nnc(NC(=O)CSc2nnc(Cc3cccn3C)n2C)s1 | inconclusive: 31.6 µM [inhibitor, partial curve, poor fit] | – |
